Measurements reported in PubChem BioAssay (NCATS).
The inconclusive results got no clear call from the source; some entries with a clear call stand among them for comparison. For part of these data: A potency beside an inconclusive call is a rough fit, not a confirmed value. For part of these data: “Side channel” marks fits to a control or component signal instead of the main read-out. Active and inactive are the calls of the source. Unless noted, calls follow the shape of the dose curve; as a rule, active = well fitted curve in either direction with a large enough effect (not every such curve was filed as active); inconclusive = small, poorly fitted or top-dose-only effect, or another doubt; inactive = flat fitted curve, though single readings scatter.

Columns and labels:
[1] = AP1 Signaling Pathway (AID 357); details: ME-180 AP-1-bla reporter, EGF-induced, beta-lactamase ratio, 5 h; at 7.69 µM (top of the series) unless noted; also: top concentration of the series differs between compounds; % is scaled to controls: 0 for no effect and ±100 for the full control effect
Method in brief: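 AP-1-bla ME-180 cells with beta-lactamase reporter under AP-1 response element, stimulated with EC50 EGF; compounds titrated, 5 hours at 37 degrees Celsius. CCF4 read at 460/530 nm ratio; positive and negative modulators judged by AC50.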

[2] = NFAT Signaling Pathway (AID 444); details: Jurkat NFAT-bla M1, carbachol, beta-lactamase ratio, 5 h;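 also: carbachol stimulus at about its EC50 of 1 µM final; % is scaled to controls: 0 for no effect and ±100 for the full control effect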
Method in brief: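 Jurkat cells carrying an NFAT-driven β-lactamase reporter and co-transfected muscarinic M1 receptor were treated with compound plus carbachol (1 uM final, an EC50 level) for 5 h at 37 °C. CCF4 loading followed for 1 h at RT; 460/530 nm ratio gave %activity.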

[3] = molecular target: 3',5'-cyclic-AMP phosphodiesterase 4B (Homo sapiens) (UniProt Q07343); assay: qHTS Assay for Inhibitors of PDE-IV (AID 607; active = well fitted activation curve with a large enough effect in the main read-out, with a control signal flat, not every such curve was filed as active; inconclusive = small, poorly fitted or top-dose-only effect, or effect the other way, or a change in a side signal; also: potency is read from the fitted curve at half-maximal effect); details: HEK293 ACTOne CNG channel cells, membrane potential fluorescence; activation (PDE inhibition): at 22.9 µM (top of the series)
Chain of UniProt Q07343 (Q07343 whole entry, looked up): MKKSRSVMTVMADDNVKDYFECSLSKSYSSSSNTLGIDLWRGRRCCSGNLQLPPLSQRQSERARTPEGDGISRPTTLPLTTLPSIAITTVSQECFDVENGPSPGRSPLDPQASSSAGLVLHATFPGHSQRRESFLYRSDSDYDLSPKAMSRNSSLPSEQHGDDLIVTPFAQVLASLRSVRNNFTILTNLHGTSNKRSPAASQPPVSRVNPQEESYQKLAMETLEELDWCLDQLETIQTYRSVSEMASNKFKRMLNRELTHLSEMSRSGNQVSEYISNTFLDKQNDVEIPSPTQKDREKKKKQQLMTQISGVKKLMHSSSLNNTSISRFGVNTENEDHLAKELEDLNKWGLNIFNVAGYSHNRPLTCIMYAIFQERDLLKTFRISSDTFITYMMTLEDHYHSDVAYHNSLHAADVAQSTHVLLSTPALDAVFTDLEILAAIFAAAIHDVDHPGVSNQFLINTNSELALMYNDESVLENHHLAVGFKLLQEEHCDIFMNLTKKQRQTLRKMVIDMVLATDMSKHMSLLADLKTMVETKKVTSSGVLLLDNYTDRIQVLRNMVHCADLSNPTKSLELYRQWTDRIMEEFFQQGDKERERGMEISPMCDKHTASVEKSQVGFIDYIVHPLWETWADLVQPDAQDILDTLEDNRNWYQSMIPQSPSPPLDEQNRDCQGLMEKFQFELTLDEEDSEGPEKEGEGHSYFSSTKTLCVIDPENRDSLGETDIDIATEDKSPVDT
Method in brief: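 The readout is membrane depolarisation from a cAMP-sensing CNG channel, detected with a potential dye at ex 535/em 590. Cells were HEK293-derived (endogenous PDE-IV) at 1000 cells/well, titrated up to 22.9 uM final.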

[4] = qHTS Assay for Identification of Small Molecule Antagonists for NFkB Signaling Pathway (AID 895; active = well fitted inhibition curve with a large enough effect in the signal ratio, with a control signal flat, not every such curve was filed as active; inconclusive = small, poorly fitted or top-dose-only effect, or effect the other way, or a change in a side signal; the % refers to the signal ratio; also: potency is read from the fitted curve at half-maximal effect); details: NFkB beta-lactamase reporter cells, FRET ratio 460/530, stimulated with 10 pM TNF alpha; activity change, negative = inhibition: at 38.3 µM (top of the series)
Method in brief: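 NFkB-bla ME-180 cervical carcinoma cells with beta-lactamase reporter under NFkB response element; compounds added, then TNF alpha at 10 pM final (EC50), 5 h at 37 C. LiveBLAzer substrate 2 h, room temperature; emission 460/530 nm at 405 nm excitation.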

[5] = qHTS Assay for Identification of Small Molecule Antagonists for Thrombopoietin (TPO) Signaling Pathway (AID 918; active = well fitted curve in the direction sought with a large enough effect; inconclusive = small, poorly fitted or top-dose-only effect, or another doubt; inactive = no such curve, though single readings can be large; an effect the other way counts as inactive or inconclusive; also: nearly all actives have a fitted effect of over 60% in size); details: TPO-dependent cell signaling reporter, antagonist mode; activity change, negative = inhibition: at 38.5 µM (top of the series)
Method in brief: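 Luminescence read-out: GPIIb-promoter luciferase in Ba/F3 cells carrying human TPO receptor. Compounds added with 26 pM TPO (EC50), 24 hrs, 37 C, 5% CO2; cells deprived of IL-3 overnight beforehand. Inhibition of signal scored.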

[6] = qHTS Assay for Lipid Storage Modulators (AID 1519; calls by dose curve; also: potency is read from the fitted curve at half-maximal effect; as to activity change, negative = inhibition: % is scaled to controls: 0 for no effect and ±100 for the full control effect); details: Drosophila S3 cells, BODIPY lipid droplet/cell ratio, laser cytometry, cells loaded with oleic acid; activity change, negative = inhibition: at 57.5 µM (top of the series) unless noted
Method in brief: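 Cells seeded at 5,000 per well were treated with compounds over a concentration series and loaded with oleic acid (400 uM, as added). Lipid droplet fluorescence (488 nm excitation, 500-530 nm channel) was read by laser-scanning cytometry and normalized to 20 uM Triacsin C.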

[7] = molecular target: Mitogen-activated protein kinase 10 (Mus musculus) (UniProt Q61831); assay: JNK3 AlphaScreen Assay (AID 530); details: JNK3 lysate, c-Jun phosphorylation; activity change, negative = inhibition: at 57.1 µM (top of the series);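 also: kinase came from lysate of stimulated human HepG2 cells; signal reports phosphorylation of biotinylated GST-cJun 1-79 at Ser73 with 10 µM ATP; potency is read from the fitted curve at half-maximal effect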
Method in brief: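 Biotinylated GST-cJun(1-79) served as substrate for JNK3 in HepG2 lysates stimulated with IL-1beta and TNF-alpha. ATP was 10 uM final, pH 7.6. Ser73 phosphorylation was quantified by AlphaScreen (680 nm excitation).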

[8] = Stat Signaling Pathway (AID 446); details: ME-180 SIE beta-lactamase reporter, IL-6 stimulated, 5 h; at 7.69 µM (top of the series) unless noted;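 also: ME-180 cervical cancer cells given 40 pM IL-6 alongside compound; SIE-controlled beta-lactamase reporter measured as 460/530 nm FRET emission ratio; top concentration of the series differs between compounds; % is scaled to controls: 0 for no effect and ±100 for the full control effect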
Method in brief: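 Emission at 460 and 530 nm (excitation 405 nm) reports SIE-controlled beta-lactamase in ME-180 cells. Cells received compound with 40 pM IL-6 for 5 hrs at 37 C; data scaled between 300 pM IL-6 and 125 nM JAK-inhibitor controls.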

[9] = molecular target: Cytochrome P450 3A4 (Homo sapiens) (UniProt P08684); assay: qHTS Assay for Activators of Cytochrome P450 3A4 (AID 885; active = well fitted curve in the direction sought with a large enough effect; inconclusive = small, poorly fitted or top-dose-only effect, or another doubt; inactive = no such curve, though single readings can be large; an effect the other way counts as inactive or inconclusive; also: potency is read from the fitted curve at half-maximal effect; nearly all actives have a fitted effect of over 65% in size); details: recombinant CYP3A4, Luciferin-PPXE luminescence, 60 min; series mostly up to 57.1 µM
Chain of UniProt P08684 (P08684 whole entry, looked up): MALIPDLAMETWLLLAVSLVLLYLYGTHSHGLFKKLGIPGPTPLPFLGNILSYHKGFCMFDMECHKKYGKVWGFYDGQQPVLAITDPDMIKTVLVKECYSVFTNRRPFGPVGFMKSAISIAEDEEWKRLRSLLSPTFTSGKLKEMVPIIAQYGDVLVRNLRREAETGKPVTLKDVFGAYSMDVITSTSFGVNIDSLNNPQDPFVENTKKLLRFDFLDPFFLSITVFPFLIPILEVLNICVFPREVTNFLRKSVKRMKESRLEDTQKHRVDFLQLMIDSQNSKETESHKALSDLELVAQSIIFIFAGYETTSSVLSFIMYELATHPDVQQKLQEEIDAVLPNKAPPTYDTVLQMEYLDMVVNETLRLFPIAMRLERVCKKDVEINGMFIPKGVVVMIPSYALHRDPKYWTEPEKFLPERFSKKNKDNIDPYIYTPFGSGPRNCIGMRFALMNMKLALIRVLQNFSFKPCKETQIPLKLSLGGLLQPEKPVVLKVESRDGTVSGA
Method in brief: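 Activators are scored by enhanced luminescence from CYP3A4 conversion of luciferin-PPXE (25uM, equal to KM) to luciferin, after 60 min at RT with an NADPH-regenerating system.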

[10] = molecular target: Cytochrome P450 2C19 (Homo sapiens) (UniProt P33261); assay: qHTS Assay for Inhibitors and Substrates of Cytochrome P450 2C19 (AID 899; active = well fitted curve in the direction sought with a large enough effect; inconclusive = small, poorly fitted or top-dose-only effect, or another doubt; inactive = no such curve, though single readings can be large; an effect the other way counts as inactive or inconclusive; also: top concentration of the series differs between compounds; % is scaled to controls: 0 for no effect and ±100 for the full control effect; nearly all actives have a fitted effect of over 60% in size); details: recombinant CYP2C19, luciferin-H EGE luminescence; series mostly up to 57.1 µM
Chain of UniProt P33261 (P33261 whole entry, looked up): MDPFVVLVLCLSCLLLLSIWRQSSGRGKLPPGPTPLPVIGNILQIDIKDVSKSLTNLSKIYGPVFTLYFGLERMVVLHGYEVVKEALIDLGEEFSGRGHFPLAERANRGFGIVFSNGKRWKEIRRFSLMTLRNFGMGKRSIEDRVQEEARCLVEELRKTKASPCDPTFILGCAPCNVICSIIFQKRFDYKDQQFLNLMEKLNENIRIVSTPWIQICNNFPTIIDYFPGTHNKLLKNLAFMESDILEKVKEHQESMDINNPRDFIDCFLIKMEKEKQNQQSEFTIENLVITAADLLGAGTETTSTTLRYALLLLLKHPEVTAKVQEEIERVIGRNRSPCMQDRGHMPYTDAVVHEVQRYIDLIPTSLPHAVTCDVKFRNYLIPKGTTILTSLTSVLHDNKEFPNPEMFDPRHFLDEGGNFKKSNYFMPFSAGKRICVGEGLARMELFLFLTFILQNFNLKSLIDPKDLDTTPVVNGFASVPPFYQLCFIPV
Method in brief: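 NADPH-dependent conversion of Luciferin-H EGE (10uM, at KM) by 5nM enzyme in 50mM KPO4, 60 min at 37C following 10 min compound preincubation. Stopped with luciferin detection buffer; luminescence read after 20 min.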

[11] = qHTS Assay for Identification of Small Molecule Agonists for Hypoxia Response Element Signaling Pathway (AID 914; active = well fitted activation curve with a large enough effect in the signal ratio, with a control signal flat, not every such curve was filed as active; inconclusive = small, poorly fitted or top-dose-only effect, or effect the other way, or a change in a side signal; the % refers to the signal ratio; also: potency is read from the fitted curve at half-maximal effect); details: ME-180 (cervical carcinoma) HRE-bla reporter, beta-lactamase ratio, CoCl2, 17 h; activation: active compounds read high
Method in brief: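 qHTS titration; ME-180 HRE-bla cells; EC50 CoCl2 co-treatment, 17 h at 37 degrees Celsius; CCF4 dye, ex 405nm, em 460nm and 530nm; %Activity from ratio; AC50.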

[12] = molecular target: Ubiquitin carboxyl-terminal hydrolase 1 (Homo sapiens) (UniProt O94782); assay: Inhibitors of USP1/UAF1: Pilot qHTS (AID 504865; active = well fitted curve in the direction sought with a large enough effect; inconclusive = small, poorly fitted or top-dose-only effect, or another doubt; inactive = no such curve, though single readings can be large; an effect the other way counts as inactive or inconclusive;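 also: rhodamine fluorescence freed from ubiquitin-rhodamine substrate followed over time; potency is read from the fitted curve at half-maximal effect; nearly all actives have a fitted effect of over 35% in size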); details: purified USP1/UAF1, Ub-rhodamine cleavage fluorescence; series mostly up to 54.9 µM
Chain of UniProt O94782 (O94782 whole entry, looked up): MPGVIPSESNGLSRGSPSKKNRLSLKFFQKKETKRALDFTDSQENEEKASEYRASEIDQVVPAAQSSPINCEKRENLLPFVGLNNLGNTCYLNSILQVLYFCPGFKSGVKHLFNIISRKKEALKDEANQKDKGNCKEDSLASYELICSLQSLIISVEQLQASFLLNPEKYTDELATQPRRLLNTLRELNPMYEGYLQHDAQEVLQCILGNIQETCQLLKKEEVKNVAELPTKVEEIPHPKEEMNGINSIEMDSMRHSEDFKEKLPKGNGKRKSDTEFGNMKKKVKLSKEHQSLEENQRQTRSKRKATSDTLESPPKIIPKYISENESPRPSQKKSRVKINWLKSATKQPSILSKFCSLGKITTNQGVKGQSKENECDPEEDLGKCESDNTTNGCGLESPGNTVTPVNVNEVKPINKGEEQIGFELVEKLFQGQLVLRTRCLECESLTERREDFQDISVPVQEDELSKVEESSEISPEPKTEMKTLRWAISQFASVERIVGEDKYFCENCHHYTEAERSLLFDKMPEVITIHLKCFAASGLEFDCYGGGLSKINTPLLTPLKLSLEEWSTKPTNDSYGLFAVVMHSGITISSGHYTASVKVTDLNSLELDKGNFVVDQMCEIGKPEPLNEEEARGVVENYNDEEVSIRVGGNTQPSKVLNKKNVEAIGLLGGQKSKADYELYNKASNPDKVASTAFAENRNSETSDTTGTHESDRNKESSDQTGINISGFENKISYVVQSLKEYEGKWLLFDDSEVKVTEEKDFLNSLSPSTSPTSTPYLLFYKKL
Method in brief: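 Enzyme-free wells gave the negative control, while test wells held 1nM USP1/UAF1 preincubated with compound for 15 min at room temperature. Ub-Rho at 150nM final started the reaction, and fluorescence at 480/540 nm was recorded kinetically.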

[13] = molecular target: Muscarinic acetylcholine receptor M1 (Rattus norvegicus) (UniProt P08482); assay: qHTS Assay for Antagonists of Acetylcholine Muscarinic M1 Receptor: Kinetic Measurement of Intracellular Calcium Response (AID 943; active = well fitted curve in the direction sought with a large enough effect; inconclusive = small, poorly fitted or top-dose-only effect, or another doubt; inactive = no such curve, though single readings can be large; an effect the other way counts as inactive or inconclusive;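 also: Fluo-4 calcium signal as peak divided by basal fluorescence over 4 min; nearly all actives have a fitted effect of over 75% in size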); details: M1-expressing cells, kinetic intracellular calcium fluorescence; series mostly up to 35.3 µM
Chain of UniProt P08482 (P08482 whole entry, looked up): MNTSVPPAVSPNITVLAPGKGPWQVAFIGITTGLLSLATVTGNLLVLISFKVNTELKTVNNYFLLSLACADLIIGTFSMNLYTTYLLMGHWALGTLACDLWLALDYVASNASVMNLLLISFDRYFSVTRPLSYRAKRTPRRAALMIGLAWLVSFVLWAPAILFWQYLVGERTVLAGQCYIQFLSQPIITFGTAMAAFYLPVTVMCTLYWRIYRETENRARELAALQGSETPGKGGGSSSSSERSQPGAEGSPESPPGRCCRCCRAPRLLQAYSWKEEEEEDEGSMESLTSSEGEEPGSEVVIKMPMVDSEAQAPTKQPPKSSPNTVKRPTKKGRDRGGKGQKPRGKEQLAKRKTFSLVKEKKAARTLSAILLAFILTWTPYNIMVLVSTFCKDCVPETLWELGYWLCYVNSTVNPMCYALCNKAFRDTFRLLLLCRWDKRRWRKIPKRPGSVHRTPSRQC
Method in brief: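 Read-out: peak over basal Fluo-4 fluorescence, kinetic at 1 Hz for 4 min after EC80 carbachol (100 nM final). Rat M1-CHO cells, dye loaded 1 h at 37C, compound added 10 min before agonist.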

[14] = at 7.69 µM (top of the series) unless noted
Tags tell the direction and shape of the fitted curve or compound fluorescence and quenching.

CCN(Cc1ccncc1)C(=O)[C@@H](CO)c1ccccc1
inconclusive: activity change, negative = inhibition [1] -37% [inhibitor] [at 38 µM] | activity change, negative = inhibition ([2]; at 17.2 µM (top of the series)) -47.4% [inhibitor] | activity change, negative = inhibition ([2]; at 38 µM (top of the series)) -67.7% [inhibitor] | Potency [3] 19 µM [inhibitor, single point] | Potency [4] 3.16 µM [inhibitor, partial curve, poor fit] | activity change, negative = inhibition [5] -8.96% [phenotype inactive]
inactive: Potency [6]

COc1ccc(C(=O)N2CCC3(CCN(C(=O)Nc4cccc(C#N)c4)CC3)CC2)cc1
inconclusive: activity change, negative = inhibition [1] -37.4% [inhibitor] | activity change, negative = inhibition [2, 14] 41.6% [activator] | Potency [7] 12.6 µM [inhibitor, partial curve] | Potency [3] 12.6 µM [activator, partial curve] | activity change, negative = inhibition [6] 3.84%

CCNc1ncc2nc(-c3ccc(Cl)cc3)c(=O)n(Cc3ccc(F)cc3)c2n1
inactive: activity change, negative = inhibition [2, 14] -1.59% | Potency [10]
active: Potency [11] 0.1 µM
inconclusive: activity change, negative = inhibition [1] 25.5% [activator] | activity, negative = inhibition [8] 65.1% [activator] | Potency [3] 1.58 µM [activator, single point] | Potency [9] 1.58 µM [activator, partial curve, poor fit] | activity change, negative = inhibition [6] 3.33%

COc1cccc(-c2ccc3ncnc(NCc4cccs4)c3c2)c1
inactive: activity change, negative = inhibition [2, 14] 23.9% | activity, negative = inhibition [8] -19.5% | Potency [6]
inconclusive: activity change, negative = inhibition [1] -73.8% [inhibitor] | Potency [3] 10 µM [activator, partial curve] | Potency [11] 2 µM [inhibitor, partial curve] | Potency [12] 25.1 µM [inhibitor, partial curve, poor fit]

COc1cccc(Cn2c(=O)c(-c3ccccc3)nc3cncnc32)c1
inconclusive: activity change, negative = inhibition [6] 8.76%
inactive: activity change, negative = inhibition [1] -16.5% | activity change, negative = inhibition [2, 14] -5.39% | activity, negative = inhibition [8] -11.9%

COc1ccc2[nH]cc(CCNc3nc(-c4ccc(C(=O)N(C)C)cc4)nc4ccccc34)c2c1
inconclusive: activity change, negative = inhibition [1] -43.5% [inhibitor] | activity change, negative = inhibition [2, 14] -55% [inhibitor] | activity, negative = inhibition [8] -30.1% [inhibitor] | Potency [11] 1.26 µM [inhibitor, partial curve] | activity change, negative = inhibition [6] 9.54%

COc1ccc(-c2nc3cnc(N4CCOCC4)nc3n(CCc3ccccc3)c2=O)cc1
active: activity change, negative = inhibition [2, 14] 119% [activator] | activity, negative = inhibition [8] 92.5% [activator] | Potency [11] 1.26 µM
inconclusive: activity change, negative = inhibition [1] 70.4% [activator] | activity change, negative = inhibition [6] -2.36%

COc1ccc(CNc2ncnc3ccc(-c4c(C)noc4C)cc23)c(OC)c1
inconclusive: activity change, negative = inhibition [1] 52.9% [activator] | activity change, negative = inhibition [2, 14] -90.8% [inhibitor] | Potency [3] 10 µM [activator, partial curve] | activity change, negative = inhibition [6] -3.71%
active: Potency [11] 2 µM

CN(C)c1ncc2nc(-c3ccc(Cl)cc3)c(=O)n(C3CC3)c2n1
inconclusive: activity change, negative = inhibition [1] 61.2% [activator] | activity change, negative = inhibition [2, 14] 131% [activator] | activity, negative = inhibition [8] 151% [activator] | activity change, negative = inhibition [6] 5.96%
active: Potency [11] 2.51 µM

CC[C@H](C(=O)[C@H](C)[C@H](O)[C@H](C)CCc1ccc(C)c(O)c1C(=O)O)[C@H]1O[C@](CC)([C@@H]2CC[C@@](O)(CC)[C@H](C)O2)C[C@H]1C
active: Potency [6] 14.1 µM
inconclusive: activity change, negative = inhibition [1] -76.2% [inhibitor] [at 17.2 µM] | activity change, negative = inhibition [2, 14] -102% [inhibitor] [at 17.2 µM] | activity, negative = inhibition [8] -48.5% [inhibitor] [at 17.2 µM] | Potency [11] 10 µM [side channel, falling, partial curve] | Potency [12] 10 µM [inhibitor, full curve]

O=C(c1ccncc1)N1CCC2(CCCN(c3ccc(-c4ccccc4)cc3)C2)CC1
inconclusive: activity change, negative = inhibition [6] -2.25%
inactive: activity change, negative = inhibition [1] -6.85% | activity change, negative = inhibition [2, 14] 14.6%

O=c1cnc2cnc(Nc3ccccc3)nc2n1C[C@H]1CCCO1
inconclusive: activity change, negative = inhibition [1] -104% [inhibitor] | activity change, negative = inhibition [2, 14] -105% [inhibitor] | activity, negative = inhibition [8] -91.4% [inhibitor] | Potency [7] 12.6 µM [inhibitor, partial curve] | activity change, negative = inhibition [6] -60.7%

CC(C)COC[C@H](CN(Cc1ccccc1)c1ccccc1)N1CCCC1
inconclusive: activity change, negative = inhibition [1] 30.8% [activator] [at 17.2 µM] | activity change, negative = inhibition [2, 14] -36% [inhibitor] [at 17.2 µM] | Potency [3] 9.51 µM [rising, partial curve] | activity change, negative = inhibition [4] 4.08% | activity change, negative = inhibition [5] -9.16% [phenotype inactive]
inactive: Potency [13] | Potency [6]
